# Reference: PubChem BioAssay AID504332 (National Center for Advancing Translational Sciences (NCATS), 2011)
# The whole screen tested about 350,000 compounds, of which about 31,000 (8.9%) were called active. The inconclusive results got no clear call from the source; some entries with a clear call stand among them for comparison. Calls come from the whole dose curve; as a rule, active = well fitted inhibition curve with a large enough effect; inconclusive = small, poorly fitted or top-dose-only effect; inactive = no such curve, though single readings can be large or run the other way. Potencies of inconclusive entries are doubtful fits and often do not repeat.
# Biological target: Histone-lysine N-methyltransferase EHMT2 (Homo sapiens) (UniProt Q96KQ7)
# Chain of UniProt Q96KQ7 (Q96KQ7 whole entry, looked up): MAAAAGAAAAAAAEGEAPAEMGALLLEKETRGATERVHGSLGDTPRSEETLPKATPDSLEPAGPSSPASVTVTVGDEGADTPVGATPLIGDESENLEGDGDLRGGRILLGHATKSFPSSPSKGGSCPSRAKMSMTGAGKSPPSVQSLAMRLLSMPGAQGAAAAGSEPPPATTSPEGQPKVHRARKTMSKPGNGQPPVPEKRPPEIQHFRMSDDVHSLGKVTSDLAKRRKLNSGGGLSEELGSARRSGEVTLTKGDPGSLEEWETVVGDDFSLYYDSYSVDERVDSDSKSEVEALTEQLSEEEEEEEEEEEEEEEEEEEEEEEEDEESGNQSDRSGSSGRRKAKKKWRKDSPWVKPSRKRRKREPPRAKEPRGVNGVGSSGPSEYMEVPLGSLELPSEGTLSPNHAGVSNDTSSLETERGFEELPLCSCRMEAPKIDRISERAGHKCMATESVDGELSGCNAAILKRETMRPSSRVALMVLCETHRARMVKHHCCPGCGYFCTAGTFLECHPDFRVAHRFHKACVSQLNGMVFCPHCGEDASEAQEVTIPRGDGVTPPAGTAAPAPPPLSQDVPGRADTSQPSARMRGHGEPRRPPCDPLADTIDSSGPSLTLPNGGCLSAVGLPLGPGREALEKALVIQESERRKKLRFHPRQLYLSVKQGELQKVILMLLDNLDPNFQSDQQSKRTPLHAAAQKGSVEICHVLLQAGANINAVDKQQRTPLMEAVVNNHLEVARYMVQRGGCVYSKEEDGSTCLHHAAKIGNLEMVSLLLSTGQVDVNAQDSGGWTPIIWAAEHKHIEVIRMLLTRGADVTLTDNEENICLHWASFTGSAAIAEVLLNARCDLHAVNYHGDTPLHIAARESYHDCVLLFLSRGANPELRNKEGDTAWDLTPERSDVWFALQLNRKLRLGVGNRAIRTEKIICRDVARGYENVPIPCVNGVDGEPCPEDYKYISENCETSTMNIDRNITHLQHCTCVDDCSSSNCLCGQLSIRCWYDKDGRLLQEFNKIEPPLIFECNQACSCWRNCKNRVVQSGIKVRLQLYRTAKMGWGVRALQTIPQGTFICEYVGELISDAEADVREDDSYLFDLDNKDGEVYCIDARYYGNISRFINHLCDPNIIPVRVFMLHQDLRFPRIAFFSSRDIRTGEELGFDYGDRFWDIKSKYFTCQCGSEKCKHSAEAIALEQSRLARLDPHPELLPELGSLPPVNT
# Experiment: qHTS Assay for Inhibitors of Histone Lysine Methyltransferase G9a; note: nearly all actives have a fitted effect of over 75% in size
# Details: G9a H3K9 monomethylation, AlphaScreen, 2 h; activity, negative = inhibition: at 59 µM (top of the series) unless noted
# Procedure, shortened: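 Chemiluminescent proximity detection of H3K9 monomethylation, read after 10 min bead incubation in the dark. Reaction: 20 nM G9a, 500 nM biotin-H3K9 peptide, 20 uM SAM cofactor, 2 h, room temperature, following 15 min enzyme-compound preincubation.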
# % is set by controls: 0 for no effect and ±100 for the full control effect; potency is the fitted concentration of half-maximal effect; tags give direction and shape of the fitted curve.
SMILES,Potency,"activity, negative = inhibition"
c1ccc(-c2ccc(CN3CCN(c4ncccn4)CC3)cc2)cc1,active: 2.82 µM,
COc1ncc2nc(-c3ccc(F)cc3)c(=O)n(CCc3ccccc3)c2n1,,inactive: 3.87% [at 0.501 µM]
O=S1(=O)C=C(SCc2cccc(Cl)c2)Nc2ccccc21,,inactive: 18.9% [at 102 µM]
CC(=O)Nc1ccc(Nc2c([N+](=O)[O-])cc(S(C)(=O)=O)cc2[N+](=O)[O-])cc1,"inconclusive: 25.1 µM [inhibitor, single point]",
COc1cccc(NC(=O)CN2CCCN(S(=O)(=O)c3ccc(Br)cc3)CC2)c1,,inactive: -6.08%
C#CCOCCOCCOCCNc1nc(N2CCN(C(=O)CCCCCCCCCCNC(=O)[C@@H](CCC(=O)O)n3cc(CCCCCN)nn3)CC2)nc(N2CCN(C(=O)CCCCCCCCCCNC(=O)[C@H]([C@@H](C)CC)n3cc(CCCCCN)nn3)CC2)n1,,inactive: 11.3% [at 2.33 µM]
COCCn1c(NC(=S)NC(=O)C23CC4CC(CC(C4)C2)C3)cc(=O)[nH]c1=O,,inactive: 7.26%
COC(=O)C1(C)Nc2ccccc2C(=O)N1c1ccccc1OC (stereo unspecified),"inconclusive: 100 µM [inhibitor, single point]",
O=[N+]([O-])c1ccc(-c2nc(NCC3CCCO3)c3ccccc3n2)cc1 (stereo unspecified),"inconclusive: 70.8 µM [inhibitor, partial curve, poor fit]",
COc1ccc(S(=O)(=O)NCCc2nnc3ccc(SCC(=O)Nc4ccc(C(F)(F)F)cc4)nn23)cc1,,inactive: 3.58%
COc1cc2c(cc1OC)C(COc1ccccc1OC)N(C(=O)c1ccco1)CC2 (stereo unspecified),"inconclusive: 79.4 µM [inhibitor, single point]",
O=C(NCCO)C1CCN(S(=O)(=O)c2ccc(F)cc2)CC1,,inactive: -1.07%
COc1ccccc1N1CCN(C(c2ccc(C)cc2)c2nnnn2C(C)C)CC1 (stereo unspecified),"inconclusive: 79.4 µM [inhibitor, partial curve, poor fit]",
COc1ccc(NC(=O)c2sc3nc(N4CCCC4)c4c(c3c2N)CC(C)(C)OC4)c(OC)c1,,inactive: 3.27% [at 102 µM]
COc1ccc(NC(=S)NCCCN2CCCC2)cc1Cl,active: 17.8 µM,
Cc1ccc(N2C(=O)[C@@H]3C(c4cccnc4)=NO[C@@H]3C2=O)c(C)c1,"inconclusive: 89.1 µM [inhibitor, single point]",
c1ccc(-c2nccc(-c3ccco3)n2)nc1,,inconclusive: -87.7% [inhibitor]
O=S1(=O)[C@H]2C[C@@H]3C=C[C@@]2(CN1Cc1ccc(Cl)cc1)O3,,inactive: 8.07% [at 102 µM]
CCOC(=O)c1c(NC(=O)/C=C/c2ccc(OC)c(OC)c2)sc(C(C)=O)c1C,"inconclusive: 11.2 µM [inhibitor, partial curve, poor fit]",
CC1=CC(C)(C)N(C(=O)Nc2ccccc2)c2ccccc21,"inconclusive: 0.398 µM [inhibitor, partial curve, poor fit]",
COc1ccc(C2=CC3=C(Br)C(=O)C(C)(O)C(=O)C3=CO2)cc1 (stereo unspecified),"inconclusive: 31.6 µM [inhibitor, single point]",
O=C(/C=C/c1ccc(Cl)cc1)N1CCN(c2ccc([N+](=O)[O-])c(N3CCOCC3)c2)CC1,"inconclusive: 39.8 µM [inhibitor, single point]",

SMILES,Potency,"activity, negative = inhibition"
COc1ccccc1N1CCN(C(=O)c2ccc(COc3cccc4c3OC(C)(C)C4)cc2)CC1,"inconclusive: 44.7 µM [inhibitor, partial curve]",
CCOc1ccc(NC(=O)C2CCN(S(=O)(=O)c3ccc4c(c3)N(C(C)=O)CCO4)CC2)cc1,,inactive: -7.56% [at 102 µM]
CCCCc1c(O)nc(SCC(=O)N2CCOCC2)n(-c2ccccc2OC)c1=O,"inconclusive: 79.4 µM [inhibitor, partial curve, poor fit]",
COc1cccc(/C=C/c2nc(C#N)c(N3CCCCC3)o2)c1,"inconclusive: 10 µM [inhibitor, partial curve]",
NS(=O)(=O)c1cccc(NC(=O)CSc2nc3ccccc3c(=O)n2CC2CCCO2)c1 (stereo unspecified),"inconclusive: 79.4 µM [inhibitor, partial curve, poor fit]",
O=C(c1ccc(Cl)c(Cl)c1)N1CCC(=O)N(C(COCc2ccccc2)Cc2ccccc2)CC1 (stereo unspecified),,inactive: -23% [at 102 µM]
CSCCC(NC(=O)c1ccco1)C(=O)NCc1ccc2c(c1)OCO2 (stereo unspecified),"inconclusive: 89.1 µM [inhibitor, partial curve, poor fit]",
COc1ccc(CC(=O)Oc2ccc(Cl)cc2Br)cc1S(=O)(=O)N1CCOCC1,"inconclusive: 79.4 µM [inhibitor, single point]",
COc1ccc2oc(C)c(C(=O)c3ccc([N+](=O)[O-])cc3)c2c1,"inconclusive: 25.1 µM [inhibitor, single point]",
CN1CCC2(CC1)CCN(C(=O)c1cccc(F)c1)CC2,,inactive: 2.3% [at 12.7 µM]
O=S(=O)(c1ccccc1)N1CCN(C(=S)NCCCN2CCOCC2)CC1,"inconclusive: 44.7 µM [inhibitor, partial curve]",
CNC(=O)c1ccsc1NC(=O)c1coc2ccccc2c1=O,active: 50.1 µM,
CN(C(=O)COC(=O)c1cc(S(=O)(=O)N2CCOCC2)ccc1F)C1CCS(=O)(=O)C1 (stereo unspecified),,inactive: -3.07% [at 102 µM]
CCCNC(=O)Nc1ccccc1C(=O)Nc1ccc(OC)cc1,"inconclusive: 89.1 µM [inhibitor, single point]",
CN(C)c1ccc(CNS(=O)(=O)c2ccc3c(c2)NC(=O)CS3)cc1,active: 50.1 µM,
CC(C)(C)N(Cc1ccccc1)C(=O)COC(=O)c1cccc([N+](=O)[O-])c1,"inconclusive: 70.8 µM [inhibitor, single point]",
S=c1[nH]nc(COc2ccccc2)n1/N=C/c1cccs1,active: 1.41 µM,
CCOCCc1nn2c(=O)cc(COC(=O)COc3ccccc3Cl)nc2s1,,inactive: 1.59%
CS(=O)(=O)c1ccc2nc(NC(=O)Nc3cccc(Cl)c3)sc2c1,,inconclusive: -96.6% [inhibitor] [at 2.33 µM]
COc1ccc2c(c1)C1NC(=S)N[C@@](C)(O2)C1C(=O)Nc1ccccc1 (stereo partly specified),,inactive: 6.46% [at 12.7 µM]
O=C(Cn1cnc2sc(-c3ccccc3)cc2c1=O)NCc1ccccc1,"inconclusive: 89.1 µM [inhibitor, single point]",
Cc1n[nH]c(C)c1Sc1ccccc1N=Cc1cc(Cl)cc([N+](=O)[O-])c1O,"inconclusive: 70.8 µM [inhibitor, partial curve, poor fit]",

SMILES,Potency,"activity, negative = inhibition"
Cc1ccc(NC(=O)CCCNC(=O)c2ccc(Cl)cc2)c(Br)c1,,inactive: -24.6% [at 2.33 µM]
COc1ccc(NC(=O)CN(C)C(=O)/C=C/c2ccc(S(=O)(=O)N3CCCCCC3)cc2)cc1,"inconclusive: 2.51 µM [inhibitor, full curve, poor fit]",
COC(=O)c1ccccc1NC(=O)CSc1nc(-c2ccccc2)cc(C(F)(F)F)n1,,inactive: 34.9%
CCOc1ncccc1C(=O)OCC(=O)N1CCN(S(=O)(=O)c2ccccc2)CC1,"inconclusive: 39.8 µM [inhibitor, single point]",
CCCCCCCC[n+]1cccc(C(=O)N2c3c(nc(N)[nH]c3=O)NC(C)C2C)c1 (stereo unspecified),"inconclusive: 35.5 µM [inhibitor, single point]",
COc1ccc(C2C=C(c3cccs3)Nc3nc(CCCO)nn32)cc1 (stereo unspecified),active: 39.8 µM,
CC(C(=O)N1c2ccccc2CC1C)N1CCN(S(=O)(=O)c2ccccc2F)CC1 (stereo unspecified),"inconclusive: 7.94 µM [inhibitor, single point]",
CCN(CC(=O)NC(=O)NC1CCCC1)Cc1ccccc1,,inactive: -0.759% [at 102 µM]
Cc1c(-n2c(SCC(=O)N(C)C3CCS(=O)(=O)C3)nc3ccccc3c2=O)c(=O)n(-c2ccccc2)n1C (stereo unspecified),"inconclusive: 100 µM [inhibitor, single point]",
CCn1cnc2cc(NCc3cccc(OC)c3O)ccc21,"inconclusive: 1.78 µM [inhibitor, full curve, poor fit]",
COc1ccc(-n2nnc(-c3nsc(NC(=O)c4cccs4)n3)c2C)cc1OC,,inactive: -6.88%
CC1CN(C(=O)COC(=O)CSc2ccc([N+](=O)[O-])cc2)CC(C)O1 (stereo unspecified),"inconclusive: 79.4 µM [inhibitor, partial curve, poor fit]",
CCOc1ccccc1/C=N/NC(=O)c1cccc(S(=O)(=O)N(CC)CC)c1,,inactive: 1.51% [at 102 µM]
CCS(=O)(=O)N1CC(=O)N(c2cc(C)ccc2C)C(C)(C(=O)NC2CCCCC2)C1 (stereo unspecified),,inactive: -3.66%
COC(=O)c1cc2c(s1)c1cnn(Cc3ccccc3F)c(=O)c1n2C,"inconclusive: 5.01 µM [inhibitor, single point]",
CCCS(=O)(=O)N1CCN(S(=O)(=O)c2ccccc2)CC1,"inconclusive: 22.4 µM [inhibitor, single point]",
O=C(N/N=C\C=C\c1ccco1)c1cncc(Br)c1,"inconclusive: 50.1 µM [inhibitor, partial curve, poor fit]",
CN1CCN(NC(=O)c2cc(S(=O)(=O)Nc3ccc(Cl)cc3)ccc2Cl)CC1,"inconclusive: 31.6 µM [inhibitor, partial curve, poor fit]",
O=C(CS(=O)c1ccc(C(F)(F)F)cc1[N+](=O)[O-])Oc1ccccc1 (stereo unspecified),active: 50.1 µM,
Cc1ccc(S(=O)(=O)c2c(Nc3cc(C)ccc3C)sc(C(=O)c3ccc4c(c3)OCO4)c2N)cc1,,inactive: 6.07%
CC(=O)c1c(C)oc2ccc(N(C(=O)Oc3ccccc3)S(=O)(=O)c3ccccc3)cc12,"inconclusive: 0.1 µM [inhibitor, full curve, poor fit]",
CCOC(=O)C1CCN(S(=O)(=O)c2ccc3[nH]c(=O)c(=O)[nH]c3c2)CC1,,inactive: -1.63% [at 102 µM]
